Source: US20040223966A1 (Pfizer, published 2004)

Target: T1, biotinylated mature BMP-11 (human, UniProt O95390 299-407, biotinylated with EZ-link Sulfo-NHS-Biotin, in the same manner as GDF-8; sites not stated)
T1 construct: mature; Active mature BMP-11 dimer purified from a cell line expressing recombinant human BMP-11; also called biotinylated BMP-11; GDF-11
T1 sequence (looked up): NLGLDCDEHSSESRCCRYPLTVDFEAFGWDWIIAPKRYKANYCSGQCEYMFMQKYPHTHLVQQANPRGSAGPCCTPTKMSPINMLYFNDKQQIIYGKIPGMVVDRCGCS
Experiment: ELISA on coated ActRIIB-Fc
Experimental: Biotinylated mature BMP-11 was prepared from BMP-11 latent complex in the same manner as described above. Recombinant ActRIIB-Fc, prepared as described in Examples 3 and 4, was coated on 96-well flat-bottom assay plates (Costar, NY, Cat. No. 3590) at 1 μg/ml in 0.2 M sodium carbonate buffer (pH 10) overnight at 4° C. Plates were then blocked with 1 mg/ml bovine serum albumin and washed following standard ELISA protocol. 100 μl aliquots of biotinylated GDF-8 or BMP-11 at various concentrations were added to the blocked ELISA plate, incubated for 1 hr and washed. The amount of bound GDF-8 or BMP-11 was detected by Streptavidin-Horseradish peroxidase (SA-HRP, BD PharMingen, San Diego, Calif., Cat. No. 13047E) followed by the addition of TMB (KPL, Gaithersburg, Md., Cat. No. 50-76-04). Colorimetric measurements were done at […] in a Molecular Devices microplate reader.

binding result: binds
B1: ActRIIB-Fc (Fc fusion)
chain: TSGRGEAETRECIYYNANWELERTNQSGLERCEGEQDKRLHCYASWRNSSGTIELVKKGCWLDDFNCYDRQECVATEENPQVYFCCCEGNFCNERFTHLPEAGGPEVTYEPPPTAPTGGRGDDDDKTRSR[… human IgG1 Fc with changes …]
notes: The leader is stated as aa 1-21; also called ActRIIB fusion polypeptide; recombinant ActRIIB-Fc
